# Data taken from PubChem BioAssay AID1240 (Sanford-Burnham Center for Chemical Genomics, 2008).
# Out of some 50,000 compounds screened, about 800 (1.6%) showed an effect of 50% or more. The list shows a part of the results.
# Molecular target: Bcl-2-like protein 10 (Homo sapiens) (UniProt Q9HD36)
# Assay: Phenotype converters, Bcl-B/TR3 peptide binding displacement, primary biochemical FP (AID 1240);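 further: 0% = Bcl-B with tracer peptide and DMSO and 100% = tracer peptide lacking Bcl-B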
# Settings: GST-Bcl-B / FITC-TR3 peptide fluorescence polarization; stronger effect = higher value; compound at 3.75 mg/L
# UniProt Q9HD36, sequence (Q9HD36 whole entry, looked up): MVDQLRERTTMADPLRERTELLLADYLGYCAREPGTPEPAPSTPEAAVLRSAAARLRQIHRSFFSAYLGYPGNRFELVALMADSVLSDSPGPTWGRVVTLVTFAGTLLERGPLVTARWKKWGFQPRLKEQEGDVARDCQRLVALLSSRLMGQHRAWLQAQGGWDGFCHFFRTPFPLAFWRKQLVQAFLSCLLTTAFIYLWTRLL
row,SMILES,displacement
1,O=C(Nc1ccc2c(c1)OCO2)c1nn2c(c1Br)NC(c1cccs1)CC2C(F)(F)F (configuration not stated),4.9%
2,Cc1cccc(NC(=O)CSc2nc3ccccc3s2)c1C,4.5%
3,COc1cc(C(O)c2nc3ccccc3n2C(C)C)cc(OC)c1OC (configuration not stated),-8.5%
4,O=C(CCCN1C(=O)c2ccccc2C1=O)NCc1ccco1,-15.7%
5,CN(C)c1ccc(/C=C2\SC(N3CCN(C(c4ccccc4)c4ccccc4)CC3)=NC2=O)cc1,-15.6%
6,COc1ccccc1N1C(=O)C2ON(c3ccccc3C)C(c3cccc(Br)c3)C2C1=O (configuration not stated),6.6%
7,Cc1c(OCC(=O)C(C)(C)C)ccc2c1oc(=O)c1ccccc12,10.3%
8,COc1ccc(C2Nc3ccccc3C(=O)N2Cc2ccco2)cc1Cn1nnc2ccccc21 (configuration not stated),-6.3%
9,COc1ccc(/C=N/Nc2nc(N3CCCC3)nc(N3CCCC3)n2)cc1,5.7%
10,CCOc1cc(/C=C2/C(=O)ON=C2c2ccc(Cl)cc2)ccc1OC,118%
11,Clc1cccc(OCCCn2ccnc2)c1,-10.7%
12,CC(=O)Nc1ccc(C(=O)NNC(=O)Cc2ccc(Cl)cc2)cc1,-4.6%
13,COc1ccc(-c2cc(=O)oc3cc(OC(C)=O)ccc23)cc1,-5.1%
14,O=c1c2ccccc2nc(/C=C/c2ccco2)n1Cc1ccccc1,-4.1%
15,C=CCOc1cccc(/C=C/C(=O)c2ccc(Cl)cc2)c1,-12.6%
16,COc1ccccc1CN/C(C)=C(/C#N)C(=O)NCc1ccccc1,-11.9%
17,Cc1cc(Br)cc(/C=N/NC(=O)c2ccc3c(c2)OCO3)c1O,12.6%
18,COc1cccc(-n2c(/C=C/c3c(C)[nH]c4ccccc34)nc3ccccc3c2=O)c1,-46.6%
19,COc1cccc(N2C(=O)CC(SCC(=O)Nc3ccc(Cl)cc3)C2=O)c1 (configuration not stated),11.8%
20,COc1cc(NS(=O)(=O)c2ccccc2)c2ncccc2c1,1.1%
21,CCOc1ccccc1N(CC(=O)Nc1ccc(OC)c(OC)c1)S(=O)(=O)c1ccccc1,12.6%
22,COc1ccc(C2SC(C)C(=O)N2c2ccc(C)cc2)cc1 (configuration not stated),5.1%

row,SMILES,displacement
1,COc1ccc(/C=C(/NC(=O)c2ccco2)C(=O)Nc2ccc3ccccc3c2)cc1,3.9%
2,Cc1ccccc1-c1nc(Cc2ccccc2)no1,-14.7%
3,COc1cc([N+](=O)[O-])cc(/C=C2/C(=O)NC(=O)N(c3ccc(C(C)C)cc3)C2=O)c1O,-10.9%
4,CCCCOc1ccc(S(=O)(=O)NCc2cccnc2)cc1,2.9%
5,CCOc1ccc(C(=O)Nc2ccc(OC)cc2)cc1[N+](=O)[O-],13.6%
6,Cc1ccc(Cl)cc1NC(=O)CSCC(=O)Nc1ccccc1,5.8%
7,CCOC(=O)c1c(NC(=O)Cc2ccccc2)sc(C(=O)Nc2cc(C(F)(F)F)ccc2Cl)c1C,8.1%
8,Cc1ccc(Cl)cc1NS(=O)(=O)c1ccc(Cl)cc1,-10.9%
9,C=C(C)c1cccc(C(C)(C)NC(=O)Nc2ccccc2F)c1,-1.2%
10,COc1ccc(C(=O)Nc2ccc(-c3nc4ccccc4s3)cc2)cc1Br,-3.3%
11,COc1ccc(NC(=O)COc2c(C)cc(C)cc2C)c(OC)c1,12.7%
12,COC(=O)C1=C(C)N(C)C(C)=C(C(=O)OC)C1c1cc(OC)c(OC)c(OC)c1,11.2%
13,O=S(=O)(NCC(c1ccccc1)N1CCOCC1)c1ccccc1 (configuration not stated),-9.9%
14,COc1cccc(N2C(=O)C(=O)/C(=C(\O)c3ccccc3)C2c2cccc([N+](=O)[O-])c2)c1 (configuration not stated),8.2%
15,COc1ccc(NC(=O)C2Cc3ccccc3CN2C(=O)OCc2ccccc2)cc1 (configuration not stated),-3.3%
16,COc1ccc(N(CC(=O)Nc2ccccc2Cl)S(=O)(=O)c2ccccc2)cc1,4.9%
17,CCOC(=O)C(CC(C)C)NC(=O)CCN1C(=O)c2ccccc2C1=O (configuration not stated),9.4%
18,O=c1[nH]c(SCc2ccccc2)nc2sc3c(c12)CCc1ccccc1-3,-10.4%
19,Cc1ccc2oc(-c3ccc(NC(=O)c4ccc(C(C)(C)C)cc4)cc3O)nc2c1,27.1%
20,COc1ccc(N(CC(=O)O)S(C)(=O)=O)c(OC)c1,7.3%
21,COc1ccc(NC(=O)c2ccc(F)c3ccccc23)c(OC)c1,14.4%
22,C/C(=N/N=C(\C)C1C(=O)c2ccccc2C1=O)c1cccs1,5.3%

row,SMILES,displacement
1,COc1ccc(CNS(=O)(=O)c2ccc(C)cc2)cc1,18.2%
2,COc1cc(C(=O)Oc2ccc3c(C)cc(=O)oc3c2C(C)=O)cc(OC)c1OC,8.7%
3,CCC(=O)N1c2ccccc2NC2=C(C(=O)CC(C)(C)C2)C1c1ccc(-c2cccc([N+](=O)[O-])c2)o1 (configuration not stated),-4.5%
4,O=C(NOC(=O)c1ccc(Br)cc1)c1ccc(Cl)cc1,-5%
5,Cc1nnc(SCc2c(Cl)cccc2Cl)s1,6.3%
6,CC(NC(=O)C12CC3CC(CC(C3)C1)C2)C1CC2CCC1C2 (configuration not stated),-8.2%
7,COc1cc(/C=N/n2c(C)nnc2C)ccc1O,11.9%
8,Cc1ccc(-c2cc(NC(=O)c3ccccc3[N+](=O)[O-])n[nH]2)cc1,8.8%
9,C=CCc1c(C)nc2cc(-c3ccc(F)cc3)[nH]n2c1=O,-5.2%
10,CC1CC(N(C(=O)c2ccco2)c2ccccc2)c2ccccc2N1C(=O)c1ccco1 (configuration not stated),-13.7%
11,CC(=O)c1c(-c2ccccc2)c2cc(C)ccc2[nH]c1=O,3.4%
12,COC(=O)C(NC(=O)COc1ccc(Cl)cc1Cl)C(C)C (configuration not stated),-13.5%
13,Cc1cc2ncn(CC(O)COc3cccc(Cl)c3)c2cc1C (configuration not stated),-10.9%
14,Cc1cccc(N2CCN(C(=S)c3ccc(-c4ccccc4[N+](=O)[O-])o3)CC2)c1,17.4%
15,COc1ccc(OC)c(/C=N/NC(=O)c2ccc[n+](CC(=O)c3ccccc3)c2)c1,39.7%
16,C=CCNC(=O)/C(=C/c1ccc(C(C)C)cc1)NC(=O)c1ccccc1,8.9%
17,COc1ccc(N(C)S(=O)(=O)c2ccc(Cl)cc2)cc1,1%
18,CSc1ccc(S(=O)(=O)N(CC(=O)Nc2cccc(Cl)c2Cl)c2ccc(C)cc2)cc1,4.2%
19,O/N=C1/c2ccccc2/C(=N/O)C1c1ccccc1,-4.1%
20,Cc1ccc(Cl)cc1NC(=O)CN(c1ccccc1)S(=O)(=O)c1ccccc1[N+](=O)[O-],5.9%
21,C/C(=N\N=C1\NC(=O)C(CC(=O)Nc2ccccc2[N+](=O)[O-])S1)c1ccc(Br)cc1 (configuration not stated),-3.3%
22,COc1cc(CNc2nc3ccccc3n2CCN2CCCCC2)cc(OC)c1OC,-14.2%

row,SMILES,displacement
1,O=c1cnn(Cc2ccccc2)c(=O)n1Cc1ccccc1,-4.3%
2,CC(Sc1nc2ccccc2n1C)C(=O)NC(c1ccccc1)c1ccccc1 (configuration not stated),-5.3%
3,O=C1C2ON(c3ccc(Cl)cc3)C(c3cccs3)C2C(=O)N1c1cccc(C(F)(F)F)c1 (configuration not stated),-18.1%
4,COc1ccc(/C=N/n2cnnc2)cc1Br,15.5%
5,O=c1oc(-c2ccco2)nc2cc(Cl)ccc12,56%
6,O=C(NCCO)C(=O)Nc1ccc(F)cc1,12.1%
7,COc1ccc(C)cc1NC(=O)Nc1ccccc1,1.3%
8,COc1cc(OC)cc(C(=O)N2CCN(S(=O)(=O)c3ccc(Cl)cc3)CC2)c1,1.7%
9,CC(C)c1ncc(C(O)c2ccc(N(C)C)cc2)n1C (configuration not stated),9.4%
10,Cc1onc(-c2ccccc2)c1C(=O)Nc1sc2c(c1C(N)=O)CCCC2,-9.6%
11,COc1cc(-c2nc3ccccn3c2/N=C/c2cccc([N+](=O)[O-])c2O)ccc1O,1.8%
12,NS(=O)(=O)c1ccc(N=C2c3ccccc3C(=O)C2c2ccccc2)cc1 (configuration not stated),3.9%
13,COC(=O)c1ccc(Oc2nc(N(C)C)nc(N(C)C)n2)cc1,-3.3%
14,COc1c(Cl)cc(Cl)cc1/C=C/c1cc(C(F)(F)F)[nH]c(=O)n1,-5.2%
15,O=C(Nc1ccc(Cl)c(Cl)c1)Nc1nnc(-c2ccccc2Cl)s1,9.9%
16,CCOc1ccc(NC(=O)CN(c2ccc(C)cc2)S(=O)(=O)c2ccc(OC)c(OC)c2)cc1,8.7%
17,CCOC(=O)c1c(-c2ccccc2)csc1NC(=O)c1cc2ccccc2oc1=O,-7.7%
18,O=C1CC(c2ccccc2F)c2cc(Br)c3ccccc3c2N1 (configuration not stated),-8.7%
19,CC1=C(C(=O)OCCc2ccccc2)C(c2ccccc2[N+](=O)[O-])C2=C(CCCC2=O)N1 (configuration not stated),-11.6%
20,COc1ccc(N(CC(=O)N2CCOCC2)S(=O)(=O)c2ccc(C)cc2)c(OC)c1,4.5%
21,Cc1sc(NC(=O)CCN2C(=O)c3ccccc3C2=O)nc1-c1ccccc1,-11.5%
22,O=C1NN(c2ccccc2)C(=O)/C1=C/c1cccc(Br)c1,21.7%

row,SMILES,displacement
1,CC1(c2ccccc2)CC(C)(C)N(C=O)c2ccccc21 (configuration not stated),-8.9%
2,Cc1cccc(-n2c(O)c(C=Nc3ccccc3N)c(=O)[nH]c2=O)c1,-24.6%
3,O=C(Nc1ccc(Cl)c(C(F)(F)F)c1)c1ccc(Br)cc1,4.1%
4,CC(=O)C1=C(O)C(=O)N(CCN2CCNCC2)C1c1ccccc1F (configuration not stated),-21.4%
5,Cc1ccc(/C(N)=N/OC(=O)c2ccc(Cl)cc2Cl)cc1,1.7%
6,CCNC(=O)C(=O)Nc1ccccc1OC,10.1%
7,Cc1cc(Nc2ccc3c(c2)n(C)c(=O)n3C)n2c(nc3ccccc32)c1C#N,22.5%
8,CCCCNc1ncnc2sc3c(c12)CCCC3,18.4%
9,Cc1ccc(C(=O)NN2C(=O)c3ccc(S(=O)(=O)c4ccc(C(=O)O)cc4)cc3C2=O)cc1,1.9%
10,Cc1ccc(C)c(N2C(=O)C3C4C=CC(C4=C4CCCCC4)C3C2=O)c1 (configuration not stated),2.8%
11,COc1ccc(C2CC(c3ccccc3)=NN2C(C)=O)cc1 (configuration not stated),13.6%
12,COc1c(Cl)cc(C(=O)Nc2ccc([N+](=O)[O-])cc2C)cc1Cl,0.3%
13,Cc1c(C(=O)Nc2cccc(C(F)(F)F)c2)cccc1[N+](=O)[O-],-8.4%
14,O=[N+]([O-])c1ccc(NCCNCCO)c(Cl)c1,13.5%
15,COc1ccc(/C=C2/N=C(c3ccc(C)cc3)OC2=O)cc1Br,127%
16,CCN(CC)CCSc1nc(O)c(C2CCCCC2)c(=O)[nH]1,-6.4%
17,Cc1cccc(-c2cc(NC(=O)c3ccc(Cl)cc3Cl)n[nH]2)c1,14.1%
18,CCOC(=O)C1CCN(C(=O)C2c3ccccc3Oc3ccccc32)CC1,11.4%
19,O=C(O)C(Cc1ccccc1)n1c(O)c(/C=C2\C=Nc3ccccc32)sc1=S (configuration not stated),-2.3%
